From publication PMC10333884, “Large‐scale phosphomimetic screening identifies phospho‐modulated motif‐based protein interactions” (Molecular Systems Biology, 2023)
Some entries of the source have several records that differ or are many. The other results are left out here. The source may hold further records. Results that share an entry appear to be repeats (runs, samples, wells or individuals); a mean can stand among them.

Columns and labels:
[1] = target: Clathrin N-terminal domain (NTD) (human) (UniProt Q00610); assay: ITC; iTC200; peptide titrated against the protein domain in approximately 10-fold excess, 16 injections; 50 mM sodium phosphate buffer pH 7.4, 1 mM DTT; constants of single runs and their average
UniProt Q00610, sequence (Q00610 1-364): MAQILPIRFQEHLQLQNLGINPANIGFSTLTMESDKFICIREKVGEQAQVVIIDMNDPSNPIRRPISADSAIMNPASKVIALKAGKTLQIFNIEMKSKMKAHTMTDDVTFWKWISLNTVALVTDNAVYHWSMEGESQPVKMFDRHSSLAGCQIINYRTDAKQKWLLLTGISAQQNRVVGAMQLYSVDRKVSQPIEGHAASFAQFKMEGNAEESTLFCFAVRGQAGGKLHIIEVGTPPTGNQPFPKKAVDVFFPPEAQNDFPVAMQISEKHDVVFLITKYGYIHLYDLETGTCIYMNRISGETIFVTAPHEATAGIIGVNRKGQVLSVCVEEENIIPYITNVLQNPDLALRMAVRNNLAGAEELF

MAP1LC3A ATG8 (human) = assay: as above

Substance: HURP 832-846 peptide, phosphorylated at S839 (from UniProt Q15398 832-846)
- stoichiometry N [1]: 0.882, 0.863, 0.719, 0.71 [lines of one column]

Substance: TBK1 164-179 peptide, wild-type (from UniProt Q9UHD2 164-179)
- stoichiometry N (MAP1LC3A ATG8 (human)): 0.78, 0.69, 0.918, 0.945 [lines of one column]
